From the supplement of paper PMC12067230
This is a noisy data set.

test: amyloid nucleation score relative to library mode (yeast Sup35 reporter selection) (log enrichment difference); higher = more amyloid nucleation; sequences are the first 22 residues of the Bri2 peptide extended by up to 12 random residues; settings: random library (experiment): 2;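 active = nucleation score significantly above 0 at FDR 0.05; inactive = not significantly above 0 or absent from output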
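Note: [psi-pin-] Saccharomyces cerevisiae expressing SupN fusions, induced by 100 µM Cu2SO4, selected 7 d at 30 °C without adenine and uracil, scored by deep sequencing of output versus input.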

Sequence	amyloid nucleation score
EASNCFAIRHFENKFAVETLICKSLDDVCAVWGV	inactive
EASNCFAIRHFENKFAVETLICVLRFFCHGTTSN	inactive
EASNCFAIRHFENKFAVETLICLVYYG	-0.0677
EASNCFAIRHFENKFAVETLICKVVILHVRLKVR	inactive
EASNCFAIRHFENKFAVETLICGYNYHSNVTSTL	inactive
EASNCFAIRHFENKFAVETLICYWVRNCWVNVMD	inactive
EASNCFAIRHFENKFAVETLICVNSSQSAFLSRV	3.91
EASNCFAIRHFENKFAVETLICVSAPYVWFMYYW	inactive
EASNCFAIRHFENKFAVETLICMDLLKRLYRTCE	inactive
EASNCFAIRHFENKFAVETLICAFTITLFIVRV	-0.104
EASNCFAIRHFENKFAVETLICYDPMIE	inactive
EASNCFAIRHFENKFAVETLICGKSNVRTVCGCM	3.8
EASNCFAIRHFENKFAVETLICCTNSTYEVGMNL	7.78
EASNCFAIRHFENKFAVETLICFVST	5.22
EASNCFAIRHFENKFAVETLICITNCHNSVVGLK	7.35
EASNCFAIRHFENKFAVETLICIERVVHL	3.45
EASNCFAIRHFENKFAVETLICVTCMSFTSVNLL	5.66

Sequence	amyloid nucleation score
EASNCFAIRHFENKFAVETLICWVFRIHLYPRTR	inactive
EASNCFAIRHFENKFAVETLICPMHALRVFLRMV	inactive
EASNCFAIRHFENKFAVETLICESLWLNKCDRL	inactive
EASNCFAIRHFENKFAVETLICLAEDARVRWLCI	4.11
EASNCFAIRHFENKFAVETLICENNKGLCLMGSV	inactive
EASNCFAIRHFENKFAVETLICWFV	2.53
EASNCFAIRHFENKFAVETLICFIILSFVYVR	inactive
EASNCFAIRHFENKFAVETLICHVNVFVMFVQGT	2.61
EASNCFAIRHFENKFAVETLICLRCSV	inactive
EASNCFAIRHFENKFAVETLICALHDDQLSFSSG	inactive
EASNCFAIRHFENKFAVETLICHSMVIWWFGKLD	inactive
EASNCFAIRHFENKFAVETLICELTYWFSICWTS	inactive
EASNCFAIRHFENKFAVETLICGVQRC	inactive
EASNCFAIRHFENKFAVETLICLLDSLCIRCGSW	inactive
EASNCFAIRHFENKFAVETLICVWL	5.27
EASNCFAIRHFENKFAVETLICRCSCLSDKVSMA	5.94
EASNCFAIRHFENKFAVETLICFWSAILLTLICE	-0.0862

same assay, conditions: random library (experiment): 3

Sequence	amyloid nucleation score
EASNCFAIRHFENKFAVETLICFCL	8.27
EASNCFAIRHFENKFAVETLICFVLSPMWRIGGR	4.46
EASNCFAIRHFENKFAVETLICLGGLSWVVYGWA	inactive
EASNCFAIRHFENKFAVETLICLGDVHTAIWSRW	8.46
EASNCFAIRHFENKFAVETLICACMSYRCSLFG	4.64
EASNCFAIRHFENKFAVETLICLGKMDGGPSRPV	4.4
EASNCFAIRHFENKFAVETLICTVYFENG	6.13
EASNCFAIRHFENKFAVETLICKCKLSRRLRALF	2.41
EASNCFAIRHFENKFAVETLICLIYGQARRGLAP	inactive
EASNCFAIRHFENKFAVETLICWFQGKVKRAWWS	inactive
EASNCFAIRHFENKFAVETLICLVFSQRKMGGRL	2.35
EASNCFAIRHFENKFAVETLICLVICQRL	inactive
EASNCFAIRHFENKFAVETLICDQQQFV	inactive
EASNCFAIRHFENKFAVETLICLERHVVQAGSVS	inactive
EASNCFAIRHFENKFAVETLICWVWLMVMLGQDA	inactive
EASNCFAIRHFENKFAVETLICVFPPSASYMG	8.75
EASNCFAIRHFENKFAVETLICGGCRRGCRVGAR	inactive
EASNCFAIRHFENKFAVETLICGRHCRLINLLLG	inactive
EASNCFAIRHFENKFAVETLICVCCRNRMYRRVQ	4.36
EASNCFAIRHFENKFAVETLICRCWSSDGRKSGW	inactive
EASNCFAIRHFENKFAVETLICYWDSDGL	6.38
EASNCFAIRHFENKFAVETLICVTLPCGIGLALM	inactive
EASNCFAIRHFENKFAVETLICYFSKWNLNAY	inactive
EASNCFAIRHFENKFAVETLICKQGAGVPWWKCR	0.749
EASNCFAIRHFENKFAVETLICAHGTRIIRQHRE	1.06
EASNCFAIRHFENKFAVETLICRRRGW	inactive
